Measured values from PubChem BioAssay AID1030 (National Center for Advancing Translational Sciences (NCATS), 2008).
The campaign covered roughly 220,000 compounds. About 16,000 (7.3%) were called active. The inconclusive results got no clear call from the source; some entries with a clear call stand among them for comparison. The call rests on the fitted dose curve; in most records, active means well fitted inhibition curve with a large enough effect (not every such curve was filed as active); inconclusive means small, poorly fitted or top-dose-only effect, or another doubt; inactive means no such curve, though single readings can be large or run the other way. Potencies of inconclusive entries are left out as doubtful fits.

biological target: Aldehyde dehydrogenase 1A1 (Homo sapiens) (UniProt P00352); test: qHTS Assay for Inhibitors of Aldehyde Dehydrogenase 1 (ALDH1A1); conditions: Purified ALDH1A1, NADH fluorescence, propionaldehyde substrate; series mostly up to 75.3 µM; activity, negative = inhibition: at the top concentration;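 on activity, negative = inhibition: plate controls were no enzyme wells and a reference inhibitor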
UniProt P00352, sequence (P00352 whole entry, looked up): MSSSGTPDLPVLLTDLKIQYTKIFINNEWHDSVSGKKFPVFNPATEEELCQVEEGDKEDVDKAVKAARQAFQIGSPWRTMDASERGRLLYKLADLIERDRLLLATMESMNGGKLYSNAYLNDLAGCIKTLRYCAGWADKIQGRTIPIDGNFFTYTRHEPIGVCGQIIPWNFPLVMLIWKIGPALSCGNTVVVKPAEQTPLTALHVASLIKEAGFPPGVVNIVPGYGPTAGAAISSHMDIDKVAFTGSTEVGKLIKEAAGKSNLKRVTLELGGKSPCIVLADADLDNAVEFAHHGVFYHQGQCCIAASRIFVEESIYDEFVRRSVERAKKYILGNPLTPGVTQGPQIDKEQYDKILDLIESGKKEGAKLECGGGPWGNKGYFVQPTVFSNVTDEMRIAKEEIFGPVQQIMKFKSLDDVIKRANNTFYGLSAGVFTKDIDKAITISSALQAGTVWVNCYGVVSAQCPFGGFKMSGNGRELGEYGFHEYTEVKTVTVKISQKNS
Potency means the concentration at half of the fitted maximal effect; tags describe the fitted curve by direction and shape.

Which activity, negative = inhibition does the source give for `O=C(O)c1c2c(c(O)c3c1CN(C1CCCCC1)CO3)OCN(C1CCCCC1)C2` here?
Its activity, negative = inhibition is inactive: 1.06% [at 13.5 µM].

For `COc1cc(CO)cc(Br)c1OCC(=O)N1CCCCC1`, which Potency is on record?
The Potency was inconclusive [inhibitor, single point].

`O=C(COc1ccc(Nc2ccccc2)cc1)OCC(=O)N1CCCCC1` was tested. Which “activity, negative = inhibition” value did it give?
Its value is inactive: -9.13%.

With `COc1ccc(OC)c(Nc2nc(-c3sc(N)nc3C)cs2)c1` as the compound, how does the Potency read?
Its Potency is inconclusive [inhibitor, partial curve].

`O=C(Nc1nc(-c2ccc(S(=O)(=O)N3CCCCCC3)cc2)cs1)c1cccs1` was tested. Which Potency did it give?
The Potency was inconclusive [inhibitor, single point].

`O=c1cnc2cnc(Oc3ccccc3)nc2n1C[C@H]1CCCO1` was tested. Which Potency did it give?
The Potency was inconclusive [inhibitor, single point].

For `Cc1ccc(C(=O)O)cc1`, which Potency is on record?
The Potency was inconclusive [inhibitor, single point].

How did the “activity, negative = inhibition” value turn out when `O=C(O)c1ccc2nc(C(F)(F)F)[nH]c2c1` was run?
Its value is inactive: 3.9%.

For `COc1ccc(C2N3CC4(C)CN2CC(C)(C3)C4O)cc1` (stereo not drawn), which Potency is on record?
Its Potency is inconclusive [inhibitor, single point].

For `Cc1cc(C)n(C(=O)c2cc3ccccc3c(=O)o2)n1`, which “activity, negative = inhibition” value is on record?
Its value is inactive: -0.0137%.

`COc1ccccc1NC(=O)CSC(N)=O` was tested. Which Potency did it give?
Its Potency is active: 1.58 µM.

Which Potency does the source give for `CC1CCCC(C)N1C(=O)CN1C(=O)C(C)(C)Oc2ccc(C(=O)NC3CCCCC3)cc21` (stereo not drawn) here?
Its Potency is inconclusive [inhibitor, single point].

With `CC1=CC(=C(C#N)C#N)C=C(C)N1Cc1ccc(Cl)cc1` as the compound, how does the Potency read?
Its Potency is inconclusive [inhibitor, single point].

Which Potency does the source give for `O=C(CCOc1ccccc1)Nc1ccc(S(=O)(=O)N2CCCC2)cc1` here?
Its Potency is active: 22.4 µM.

With `CSc1cnn(-c2ccccc2)c(=O)c1SC` as the compound, how does the Potency read?
The Potency was inconclusive [inhibitor, single point].

With `Cc1ccc(-c2nnn(CC(=O)N(Cc3cccs3)C(C(=O)NC3CCCC3)c3ccco3)n2)o1` (stereo not drawn) as the compound, how does the Potency read?
Its Potency is active: 22.4 µM.

For `CNC(=S)N(Cc1ccco1)Cc1cc2cc(OC)c(OC)cc2[nH]c1=O`, which Potency is on record?
The Potency was inconclusive [inhibitor, partial curve].

For `CCOc1ncccc1C(=O)OCC(=O)Nc1ccc(-c2nc3ccc(C)cc3s2)cc1`, which Potency is on record?
The Potency was inconclusive [inhibitor, single point].

Which Potency does the source give for `COc1ccc(NC(=O)CSc2nc3ccccc3c(=O)n2CCNC(C)=O)cc1` here?
Its Potency is inconclusive [inhibitor, single point].

With `CC(C)c1nnc(NC(=O)COc2ccccc2[N+](=O)[O-])s1` as the compound, how does the Potency read?
Its Potency is inconclusive [inhibitor, single point].

With `O=C(CSCc1nc2c(nnn2Cc2ccc(F)cc2)c(=O)[nH]1)Nc1c(Cl)cc(Cl)cc1Cl` as the compound, how does the “activity, negative = inhibition” value read?
The value was inactive: 2.03%.

For `O=C(CCCSc1nc(-c2ccco2)cc(C(F)(F)F)n1)NCc1cccs1`, which Potency is on record?
Its Potency is inconclusive [inhibitor, single point].

With `C=CCN=C(NC#N)SC` as the compound, how does the Potency read?
Its Potency is inconclusive [inhibitor, single point].

For `Cc1ccc(-c2cc(C(=O)Nc3cccnc3)c3ccccc3n2)o1`, which Potency is on record?
Its Potency is inconclusive [inhibitor, partial curve].

For `O=C(CSc1nnc(-c2ccccc2O)n1-c1ccccc1)Nc1cccc(C(=O)O)c1`, which “activity, negative = inhibition” value is on record?
The value was inactive: 5.86%.

With `O=C(NNS(=O)(=O)c1ccc(Cl)cc1)C1CCN(Cc2ccccc2)CC1` as the compound, how does the Potency read?
The Potency was active: 22.4 µM.

`COc1ccc(C)cc1S(=O)(=O)N1c2ccccc2CC1C` (stereo not drawn) was tested. Which Potency did it give?
The Potency was inconclusive [inhibitor, single point].

With `Cc1ccc(-n2nnnc2SCc2nnc(-c3ccccc3Br)o2)cc1` as the compound, how does the Potency read?
Its Potency is inconclusive [inhibitor, single point].

`NNC(=O)Cc1cccnc1` was tested. Which activity, negative = inhibition did it give?
The activity, negative = inhibition was inactive: 7.93% [at 13.5 µM].

With `O=C(Cc1ccc(Br)cc1)Nc1ccc(S(=O)(=O)NCC2CCCO2)cc1` (stereo not drawn) as the compound, how does the “activity, negative = inhibition” value read?
The value was inactive: -12.4%.

How did the Potency turn out when `CCOc1cc(/C=N/Nc2ccccc2Cl)ccc1OCC(=O)O` was run?
The Potency was inconclusive [inhibitor, single point].

With `CCc1ccc(CN/C=C/C(=O)c2ccc(Br)cc2)cc1` as the compound, how does the Potency read?
The Potency was inconclusive [inhibitor, single point].

With `CCOC(=O)/C(C#N)=C/Nc1cc(C(=O)OCC)cc2c(OC)c(OC)ccc12` as the compound, how does the Potency read?
Its Potency is inconclusive [inhibitor, partial curve].

Which Potency does the source give for `O=C(COC(=O)CN1C(=O)C(=O)c2ccccc21)OCN1C(=O)c2ccccc2C1=O` here?
The Potency was active: 0.0891 µM.

With `Clc1ccc(-n2nnnc2-c2cnc(-c3ccncc3)nc2-c2cccs2)cc1` as the compound, how does the Potency read?
Its Potency is inconclusive [inhibitor, single point].

How did the Potency turn out when `O=C(Cc1ccc(Cl)cc1)Nc1ccc(-c2nnc(-c3ccco3)o2)cc1` was run?
Its Potency is inconclusive [inhibitor, single point].

With `O=C(NC1CCCC1)C(c1ccncc1)N(Cc1ccccc1)C(=O)Cc1cccs1` (stereo not drawn) as the compound, how does the Potency read?
Its Potency is inconclusive [inhibitor, single point].

`O=C(N/N=C/c1ccccc1)c1ccc(CN2C(=O)c3cccc4cccc2c34)cc1` was tested. Which Potency did it give?
Its Potency is inconclusive [inhibitor, partial curve].

How did the Potency turn out when `COc1ccc(C(=O)NC(=S)NCc2ccccc2)cc1` was run?
The Potency was active: 22.4 µM.

For `CCCCCCC1CC(CCc2nc(=S)[nH][nH]2)C(=O)O1` (stereo not drawn), which Potency is on record?
The Potency was inconclusive [inhibitor, partial curve].

`O=C(Cn1c(=O)n(Cc2ccco2)c(=O)c2cc(Cl)ccc21)NCC1CCCO1` (stereo not drawn) was tested. Which Potency did it give?
The Potency was active: 25.1 µM.

How did the Potency turn out when `O=C1CSC(=S)N1N1C(=O)c2cccc([N+](=O)[O-])c2C1=O` was run?
Its Potency is active: 7.94 µM.

With `COc1ccc(OC)c(NC(=O)Cc2coc3ccc(C)cc23)c1` as the compound, how does the “activity, negative = inhibition” value read?
Its value is inactive: -0.888%.

With `C=CCn1c(SCC(=O)/C(C#N)=C(\C)N)nc2sc(CC)cc2c1=O` as the compound, how does the Potency read?
The Potency was inconclusive [inhibitor, full curve].

For `O=C(COc1ccc2ccccc2c1Br)Nn1cnnc1`, which “activity, negative = inhibition” value is on record?
The value was inactive: 19.5%.

`O=C(OCc1nc2ccccc2s1)c1ccc(Br)o1` was tested. Which Potency did it give?
The Potency was inconclusive [inhibitor, single point].

For `CCOC(=O)c1sc(NS(=O)(=O)c2ccc(F)cc2)nc1C`, which Potency is on record?
Its Potency is inconclusive [inhibitor, single point].

How did the Potency turn out when `CC1=NN(c2ccccc2)C(=O)/C1=C\c1ccc(Oc2ccc([N+](=O)[O-])cc2[N+](=O)[O-])cc1` was run?
The Potency was active: 8.91 µM.

With `CC(=O)c1cccc(S(=O)(=O)NC2CC2)c1` as the compound, how does the Potency read?
The Potency was inconclusive [inhibitor, single point].

How did the Potency turn out when `COc1ccc(C(=O)CSc2nnc3ccc(-c4ccccn4)nn23)cc1` was run?
The Potency was inconclusive [inhibitor, partial curve].

With `COc1ccc(/C=C/C(=O)OCC(=O)Nc2ccc(Cl)c(S(=O)(=O)N(C)C)c2)cc1OC` as the compound, how does the Potency read?
Its Potency is inconclusive [inhibitor, partial curve].

Which Potency does the source give for `COCCNC(=O)C(c1ccc(C)o1)N(C(=O)c1snc(C(N)=O)c1N)c1cccc(C)c1` (stereo not drawn) here?
Its Potency is inconclusive [inhibitor, partial curve].

How did the “activity, negative = inhibition” value turn out when `Cc1cccc(C)c1NC(=O)N1CCC(c2nc3ccccc3o2)CC1` was run?
The value was inactive: 0.998%.

For `CCOc1cc(N2CCOCC2)c(OCC)cc1NC(=O)CN1CCCC(C)C1` (stereo not drawn), which Potency is on record?
Its Potency is inconclusive [inhibitor, single point].

With `COc1cc(/C=C/C(=O)O)ccc1OS(=O)(=O)c1cc(C)ccc1C` as the compound, how does the “activity, negative = inhibition” value read?
Its value is inactive: 11.5%.

Which Potency does the source give for `O=C1c2cccc(O)c2C(=O)c2c(O)cccc21` here?
The Potency was inconclusive [inhibitor, single point].

For `COCCn1c(=O)c(-c2ccc(OC)cc2)nc2cnc(OCc3ccccc3)nc21`, which Potency is on record?
Its Potency is inconclusive [inhibitor, single point].

With `CC(C)(C)C(=O)C[n+]1cccc(C(N)=O)c1` as the compound, how does the “activity, negative = inhibition” value read?
Its value is inactive: 6.23%.

How did the Potency turn out when `Cn1ncc(C#N)c1/N=C/N(Cc1ccccc1)Cc1ccccc1` was run?
Its Potency is inconclusive [inhibitor, single point].

Which “activity, negative = inhibition” value does the source give for `COc1ccc(/C=N/OC(=O)Nc2ccccc2)cc1[N+](=O)[O-]` here?
Its value is inactive: -39.2%.

For `COn1c(=O)c(=O)n(O)c2ccccc21`, which “activity, negative = inhibition” value is on record?
Its value is inactive: -1.91%.

How did the “activity, negative = inhibition” value turn out when `Cc1ccc(NS(=O)(=O)c2cccs2)cc1S(=O)(=O)N1CCCCCC1` was run?
Its value is inactive: -8.54%.

How did the “activity, negative = inhibition” value turn out when `Cc1cc(C)c(NC(=O)NC(=O)C(Cl)(Cl)Cl)c(C)c1` was run?
The value was inactive: 0.0833%.

For `COc1ccc(-c2nc3ccccc3s2)cc1NC(C)=O`, which Potency is on record?
The Potency was inconclusive [inhibitor, partial curve].

Which Potency does the source give for `Cc1ccc(-n2[nH]c(C)c(C=Nc3ccc(C)cn3)c2=O)cc1` here?
Its Potency is inconclusive [inhibitor, single point].

For `O=C(NCCCl)C1Cc2c(ccc3ccccc23)O1` (stereo not drawn), which Potency is on record?
The Potency was inconclusive [inhibitor, single point].

`COc1cccc(-c2ccc(C#N)c(OC(=O)c3c(Cl)cccc3Cl)n2)c1` was tested. Which Potency did it give?
The Potency was inconclusive [inhibitor, partial curve].

`Cc1ccc(C(=O)NN2C(=O)/C(=C/c3cccn3C)SC2=S)cc1` was tested. Which Potency did it give?
The Potency was inconclusive [inhibitor, single point].

`O=C(CCCl)N(Cc1nc2ccccc2c(=O)[nH]1)Cc1cccs1` was tested. Which “activity, negative = inhibition” value did it give?
The value was inactive: -7.44%.

`O=C(/C=C/c1cc([N+](=O)[O-])ccc1OC(F)F)NCc1ccc(Cl)cc1` was tested. Which “activity, negative = inhibition” value did it give?
The value was inactive: -4.27%.

How did the Potency turn out when `COc1ccccc1N1CCN(C(=O)C(Sc2ccccc2)c2ccccc2)CC1` (stereo not drawn) was run?
The Potency was inconclusive [inhibitor, partial curve].

`O=c1c2cc(Cl)ccc2[nH]c(=S)n1Cc1ccccn1` was tested. Which Potency did it give?
Its Potency is inconclusive [inhibitor, partial curve].

How did the “activity, negative = inhibition” value turn out when `Cc1ccc(S(=O)(=O)N2CCOCC2)cc1C(=O)OCC(=O)NC1CCS(=O)(=O)C1` (stereo not drawn) was run?
The value was inactive: -5.57%.
